Laboratory results published in PubChem BioAssay (NCATS).
Where “and” joins values, the source holds several entries; their conditions need not be identical. Identical values can stand only once. This list was built around the results that the source calls inconclusive (neither active nor inactive); the mix of calls is not that of the screen. For part of these data: Potencies of inconclusive entries are doubtful fits and often do not repeat. Calls of active or inactive are those of the source. Unless noted, calls follow the shape of the dose curve; as a rule, active = well fitted curve in the direction sought with a large enough effect; inconclusive = small, poorly fitted or top-dose-only effect, or another doubt; inactive = no such curve, though single readings can be large; an effect the other way counts as inactive or inconclusive.

What was measured:
[1] = qHTS Screen of the MIPE 4.0 Collection Against Ewings Sarcoma (RDES) (AID 1259252); conditions: RD-ES Ewing sarcoma viability, CellTiter-Glo, 48 h; series mostly up to 45.8 µM; also: nearly all actives have a fitted effect of over 35% in size; also: potency is read from the fitted curve at half-maximal effect
Method in brief: (§1)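 After a 4 h attachment period in RPMI/5% FBS, cells were pin-dosed with test compounds; DMSO served as negative and 9.2 uM bortezomib (final) as positive control. Luminescent CellTiter-Glo signal at 48 h defined viability.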

[2] = qHTS Screen of the MIPE 4.0 Collection Against Ewings Sarcoma (TC71) (AID 1259253); conditions: TC71 Ewing sarcoma viability, CellTiter-Glo, 48 h; series mostly up to 45.8 µM; also: potency is read from the fitted curve at half-maximal effect; nearly all actives have a fitted effect of over 40% in size
Method in brief: as §1

[3] = qHTS Screen of the MIPE 4.0 Collection Against Ewings Sarcoma (EW8) (AID 1259255); conditions: EW8 Ewing sarcoma viability, CellTiter-Glo, 48 h; series mostly up to 45.8 µM; also: nearly all actives have a fitted effect of over 35% in size; also: potency is read from the fitted curve at half-maximal effect;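 as to viability: 100% = DMSO-treated cells and 0% = medium-only wells without cells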
Method in brief: as §1

[4] = qHTS Screen of the MIPE 4.0 Collection Against Ewings Sarcoma (TC32) (AID 1259256); conditions: TC32 Ewing sarcoma viability, CellTiter-Glo, 48 h; series mostly up to 45.8 µM; also: nearly all actives have a fitted effect of over 45% in size; also: potency is read from the fitted curve at half-maximal effect
Method in brief: as §1

[5] = P-glycoprotein substrates identified in KB-8-5-11 adenocarcinoma cell line, qHTS therapeutic library screen (AID 1346987); conditions: KB-8-5-11 (P-gp overexpressing) viability, CellTiter-Glo, 72 h; series mostly up to 44.5 µM; also: nearly all actives have a fitted effect of over 65% in size; also: potency is read from the fitted curve at half-maximal effect
Method in brief: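 KB-8-5-11, a colchicine-selected P-gp-overexpressing KB-3-1 subline, was grown without colchicine for the assay. Cells were seeded at 500 cells/well, dosed in concentration-response and incubated 72 h at 37 degree C, 5% CO2. Viability was read by CellTiter-Glo luminescence.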

[6] = target: Hexokinase-4 (Homo sapiens) + Glucokinase regulatory protein (Homo sapiens) (UniProt P35557+Q14397); assay: qHTS assay for inhibitors of recombinant human GCK-GKRP interaction: HTRF assay (AID 743207); conditions: recombinant GCK-GKRP HTRF binding, 60 min, with sorbitol-6-phosphate; at 57.5 µM (top of the series);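 also: 0% = DMSO with GCK present and -100% = DMSO wells lacking GCK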
Method in brief: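 Steps: dispense GCK–GKRP complex (5 nM each, GST- and FLAG-tagged) with 2 uM S6P; pin in compounds; add XL665/Eu-cryptate-labelled antibodies; incubate 60 min at room temperature; read time-resolved FRET at 665 and 615 nm.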

[7] = qHTS assay for cell viability of HEK293 cells (AID 743288); conditions: ATP luminescence (CellTiter-Glo), 18 h; max response: stronger effect = lower value; also: potency is read from the fitted curve at half-maximal effect; nearly all actives have a fitted effect of over 50% in size
Method in brief: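 The Tox21 protocol used parental HEK293 cells treated for 18 h at 37 C with compounds delivered by pintool; ATP-coupled luminescence after 30 min at room temperature gave viability.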

[8] = qHTS assay for cell viability of the p53RE-bla HCT-116 cell line (AID 743292); conditions: p53RE-bla HCT-116 viability, ATP luminescence, 16 h; also: potency is read from the fitted curve at half-maximal effect; nearly all actives have a fitted effect of over 55% in size
Method in brief: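 ATP-based luminescence, 16 h compound exposure at 37 C, p53RE-bla HCT-116 cells at 4,000/well.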

[9] = Natriuretic polypeptide receptor (hNpr1) antagonism - Pilot counterscreen GloSensor control cell line (AID 1347045; calls by dose curve; also: potency is read from the fitted curve at half-maximal effect); conditions: HEK293 cGMP GloSensor cells, SNP-stimulated luminescence, 20 min; series mostly up to 38.3 µM
Method in brief: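 HEK293 cGMP GloSensor cells preloaded 2 h with 2% GloSensor reagent, then compound 30 min before baseline luminescence read. Stimulated with 50 uM sodium nitroprusside, 20 min at room temperature, then read again; counterscreen for Npr1 antagonism.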
Tags tell the direction and shape of the fitted curve.

Chain of UniProt P35557 (P35557 whole entry, looked up): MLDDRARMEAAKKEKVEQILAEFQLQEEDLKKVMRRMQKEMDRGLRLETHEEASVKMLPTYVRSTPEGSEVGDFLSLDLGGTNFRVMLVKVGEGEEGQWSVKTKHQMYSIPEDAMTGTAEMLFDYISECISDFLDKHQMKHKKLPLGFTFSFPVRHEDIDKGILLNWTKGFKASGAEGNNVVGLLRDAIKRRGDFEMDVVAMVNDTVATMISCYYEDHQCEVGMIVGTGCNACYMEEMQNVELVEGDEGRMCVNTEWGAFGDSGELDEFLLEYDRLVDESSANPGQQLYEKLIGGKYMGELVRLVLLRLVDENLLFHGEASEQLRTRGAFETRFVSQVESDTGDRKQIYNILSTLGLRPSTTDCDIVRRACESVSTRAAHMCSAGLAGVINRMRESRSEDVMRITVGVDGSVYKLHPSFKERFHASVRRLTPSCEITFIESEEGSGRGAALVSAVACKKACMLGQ
Chain of UniProt P35557 (Q14397 whole entry, looked up): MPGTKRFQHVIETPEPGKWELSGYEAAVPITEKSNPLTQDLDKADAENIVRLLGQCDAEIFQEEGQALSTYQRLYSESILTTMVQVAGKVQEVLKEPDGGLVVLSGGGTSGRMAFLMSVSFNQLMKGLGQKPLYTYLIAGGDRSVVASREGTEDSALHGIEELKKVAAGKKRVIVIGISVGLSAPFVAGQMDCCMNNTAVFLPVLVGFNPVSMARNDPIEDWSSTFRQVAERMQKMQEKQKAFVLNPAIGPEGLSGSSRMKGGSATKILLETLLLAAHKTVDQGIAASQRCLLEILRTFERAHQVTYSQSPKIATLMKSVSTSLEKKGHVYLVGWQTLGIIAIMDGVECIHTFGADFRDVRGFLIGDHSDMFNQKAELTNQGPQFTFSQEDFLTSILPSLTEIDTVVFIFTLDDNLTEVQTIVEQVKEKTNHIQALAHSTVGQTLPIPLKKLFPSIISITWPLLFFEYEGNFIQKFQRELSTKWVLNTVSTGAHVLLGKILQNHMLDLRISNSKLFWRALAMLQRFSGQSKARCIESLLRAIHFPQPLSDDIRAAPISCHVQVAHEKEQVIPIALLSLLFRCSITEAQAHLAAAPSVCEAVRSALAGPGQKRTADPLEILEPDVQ

SMILES	Potency [1]	Potency [2]	Potency [3]	Potency [4]	Potency [5]	activity change, negative = inhibition [6]	Potency [7]	Potency [8]	Potency [9]
O=C1NC(=O)C(=Cc2cccc(C(F)(F)F)c2)S1	inconclusive: 33.2 µM [inhibitor, single point]	inconclusive: 26.4 µM [inhibitor, single point]	inconclusive: 33.2 µM [inhibitor, single point]	inconclusive: 33.2 µM [inhibitor, partial curve, poor fit]	inconclusive: 23.5 µM [inhibitor, single point]	–	–	–	–
Clc1ccc(C(c2ccccc2Cl)C(Cl)Cl)cc1 (stereo not drawn)	inconclusive: 33.2 µM [inhibitor, single point]	inconclusive: 20.9 µM [inhibitor, partial curve]	inconclusive: 23.5 µM [inhibitor, partial curve]	inconclusive: 18.7 µM [inhibitor, partial curve]	inconclusive: 18.4 µM [inhibitor, partial curve, poor fit] and inconclusive: 26.4 µM [inhibitor, single point]	inactive: 1.2%	inconclusive: 44.7 µM [cytotoxic, partial curve] and inconclusive: 50.1 µM [cytotoxic, single point]	inconclusive: 50.1 µM [cytotoxic, partial curve, poor fit] and inconclusive: 50.1 µM [cytotoxic, single point]	inconclusive: 18.5 µM [inhibitor, partial curve, poor fit]
Cn1c(=O)c(Oc2ccc(F)cc2F)cc2cnc(NC3CCOCC3)nc21	inactive	inconclusive: 0.0833 µM [inhibitor, full curve, poor fit]	inconclusive: 3.72 µM [inhibitor, partial curve, poor fit]	inactive	inconclusive: 7.43 µM [inhibitor, full curve, poor fit]	–	–	–	–
Clc1ccc(C(Cn2ccnc2)OCc2ccsc2Cl)c(Cl)c1 (stereo not drawn)	inconclusive: 26.4 µM [inhibitor, single point]	inconclusive: 26.4 µM [inhibitor, single point]	inconclusive: 33.2 µM [inhibitor, single point]	inconclusive: 18.7 µM [inhibitor, partial curve]	inconclusive: 23.5 µM [inhibitor, single point]	–	–	–	–
CS(=O)(=O)OCCCCOS(C)(=O)=O	inactive	inconclusive: 16.6 µM [inhibitor, partial curve, poor fit]	inactive	inconclusive: 0.0066 µM [inhibitor, full curve, poor fit]	inactive	–	–	–	–
CC(C)C[C@H](CC(=O)O)C(=O)N[C@@H](Cc1c[nH]c2ccccc12)C(=O)N[C@@H](C)c1ccccc1	inconclusive: 33.2 µM [inhibitor, single point]	inconclusive: 33.2 µM [inhibitor, single point]	inconclusive: 37.2 µM [inhibitor, single point]	inconclusive: 33.2 µM [inhibitor, single point]	inactive	–	–	–	–
COC[C@@H](c1ccc(C(F)(F)F)cc1)N1CCN(C2(C)CCN(C(=O)c3c(C)ncnc3C)CC2)C[C@H]1C	inconclusive: 33.2 µM [inhibitor, single point]	inconclusive: 33.2 µM [inhibitor, single point]	inconclusive: 33.2 µM [inhibitor, single point]	inconclusive: 37.2 µM [inhibitor, single point]	–	–	–	–	–
CC(C)n1cnc2c(NCCCCCCNC(=O)OC(C)(C)C)nc(NCCO)nc21	inconclusive: 26.4 µM [inhibitor, single point]	inconclusive: 18.7 µM [inhibitor, partial curve]	inconclusive: 23.5 µM [inhibitor, partial curve]	inconclusive: 20.9 µM [inhibitor, single point]	inconclusive: 14.8 µM [inhibitor, partial curve]	–	–	–	–
CCn1c(C(=O)N(C2CC2)C2CC2)cc2c3c(ncn3C)c(Nc3cc(C)n(C)n3)nc21	inconclusive: 18.7 µM [inhibitor, partial curve]	inconclusive: 26.4 µM [inhibitor, single point]	inconclusive: 33.2 µM [inhibitor, single point]	inconclusive: 18.7 µM [inhibitor, partial curve]	inconclusive: 8.2 µM [inhibitor, partial curve, poor fit]	–	–	–	–
